From PubChem BioAssay AID1508642 (National Center for Advancing Translational Sciences (NCATS), 2021)
In all, about 43,000 compounds went through this assay and about 200 (0.47%) were called active. Inconclusive results (about 12%) are left out. Calls follow the shape of the dose curve; as a rule, active = well fitted cell-killing curve with a large enough effect; inconclusive = small, poorly fitted or top-dose-only effect, or effect the other way; inactive = flat fitted curve, though single readings scatter. Some of the results follow.

Assay: Cell viability qHTS assay in S16 Pmp22-F2sN cells; also: nearly all actives have a fitted effect of over 65% in size
Conditions: S16 Pmp22-F2sN Schwann cells viability, CellTiter-Glo, 24 h; series mostly up to 57.5 µM; activity change, negative = cytotoxicity: at the top concentration
Outline: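 Used to flag compounds lowering reporter output through toxicity, this quantitative HTS measures ATP-based CellTiter-Glo luminescence in S16 Pmp22-F2sN Schwann cells after 24 h compound exposure at 37C.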
% is scaled to controls: 0 for no effect and ±100 for the full control effect; potency is read from the fitted curve at half-maximal effect.

| Compound | activity change, negative = cytotoxicity | Potency |
| --- | --- | --- |
| CCCCN(CC)CCCNC(=O)c1cc2c(-c3ccc(OC)c(OC)c3)nn(C)c2s1 | inactive: -28.8% | – |
| CCCCNC(=O)CCCn1c(=O)c2ccccc2n(Cc2ccccc2C)c1=O | inactive: -1.33% | – |
| CCc1c(C)sc2c1CCN(Cc1ccc(F)cc1)C2c1ccccc1 (configuration not stated) | – | active: 8.91 µM |
| Cc1ccc2nc(N(Cc3cccnc3)C(=O)C3COc4ccccc4O3)sc2c1 (configuration not stated) | inactive: 2.36% | – |
| CCc1ccc(CN(C(=O)c2cc3ccccc3oc2=O)C2CCS(=O)(=O)C2)cc1 (configuration not stated) | inactive: -7.94% | – |
| COc1ccc(Cl)cc1NC(=O)CCC(=O)c1ccc(C)cc1 | inactive: 2.53% | – |
| CC(=O)c1ccc(NC(=O)c2ncn(-c3ccccc3)n2)cc1 | inactive: 9.36% | – |
| Cc1cc(O)c(C(c2ccccc2Cl)N2CCN(c3ccccc3)CC2)c(=O)n1Cc1ccco1 (configuration not stated) | inactive: -25.2% | – |
| Cc1ccc(C)c(NC(=O)CCCn2nc(C)c3sc4ccccc4c3c2=O)c1 | inactive: 3.54% | – |
| COc1cc(NC(=O)c2cnn(-c3cccc(F)c3)c2C2CCNCC2)cc(OC)c1OC | inactive: -2.65% | – |
| CCc1nnc(NC(=O)CSCc2cc(=O)c3ccc(C)cc3[nH]2)s1 | inactive: 8.61% | – |
| COc1ccc(NC(=O)CN(Cc2ccccc2)S(=O)(=O)c2ccc3nc(C)sc3c2)cc1 | inactive: -0.77% | – |
| COc1ccc(CNC(=O)CC2N=C3c4ccccc4N=C(SCC(=O)Nc4ccc(N(C)C)cc4)N3C2=O)cc1 (configuration not stated) | inactive: -2.27% | – |
| O=C(CSc1oc(-c2ccco2)nc1S(=O)(=O)c1ccc(Cl)cc1)c1ccc(Cl)cc1 | inactive: -0.558% | – |
| Cc1ccc2oc(=O)c3cc(C(=O)N(Cc4ccccc4)C(C)C)sc3c2c1 | inactive: -11.2% | – |
| CCN1CCC(N(Cc2cccc(OC)c2)C(=O)Nc2ccc(C)cc2Cl)CC1 | inactive: -19% | – |
| Cc1ccc(CSc2nc(=O)c3c(n2C)NC(=O)CC3c2ccc(OC(C)C)cc2)cc1 (configuration not stated) | inactive: 3.04% | – |
| CCCCCNC(=O)C(=O)NCC(c1ccc2c(c1)OCO2)N1CCOCC1 (configuration not stated) | inactive: 21.8% | – |
| Cc1ccc(NC(=O)Cn2c(-c3ccc4c(c3)OCO4)cn(-c3ccccc3)c2=O)cc1 | inactive: -7.32% | – |
| Cc1ccc2c(c1)c1c(c(=O)n(Cc3ccccc3)c(=O)n1CC(=O)Nc1ccccc1C)n2C | inactive: 0.454% | – |
| COc1ccc(-c2c3c(=O)n(C)c(=O)n(C)c3c3c(-c4ccc(C)cc4)nc4ccccc4n23)cc1 | inactive: -5.28% | – |
| CC(=O)N1CCc2cc(Br)cc(S(=O)(=O)CCC(=O)N3CCN(c4ccccc4)CC3)c21 | inactive: 13.3% | – |
| Cc1nc2cc(C(=O)NC3CCCCCC3)ccc2n1-c1ccc(Br)cc1 | inactive: -15.5% | – |
| Cc1ccc(Cn2c(SCC(=O)NCc3ccccc3Cl)nc3ccsc3c2=O)cc1 | inactive: 14% | – |

| Compound | activity change, negative = cytotoxicity | Potency |
| --- | --- | --- |
| Fc1ccc(Nc2nc(SCc3ccccc3F)nc3ccccc23)cc1 | inactive: -8.03% | – |
| COc1cc(NC(=O)CCCc2nnc3n(CC(C)C)c(=O)c4sccc4n23)cc(OC)c1 | inactive: 6.74% | – |
| CN(C)S(=O)(=O)c1ccc2c(c1)N(CC(=O)Nc1ccc(F)cc1)C(=O)CS2 | inactive: 0.0249% | – |
| Cc1cc(-c2ccc(C)c(S(=O)(=O)NCCc3ccc(S(N)(=O)=O)cc3)c2)on1 | inactive: -3.09% | – |
| CC(C)c1ccc(NS(=O)(=O)c2ccc3[nH]cc(C(=O)NCC4CCCO4)c(=O)c3c2)cc1 (configuration not stated) | inactive: -0.434% | – |
| CCOc1ccc2nc(N3CCCC(C(=O)Nc4ccc(OC)c(Cl)c4)C3)sc2c1 (configuration not stated) | inactive: 10.9% | – |
| CCc1ccc(S(=O)(=O)Nc2ccc3[nH]c(=O)sc3c2)cc1 | inactive: 6.25% | – |
| Cc1cccc(NC(=O)c2sc3nc4c(cc3c2N)CN(C(C)C)CC4)c1 | inactive: -5.16% | – |
| CC1=C(C(=O)OC2CCCCCC2)C(c2cccc(F)c2F)CC(=O)N1 (configuration not stated) | inactive: 5.93% | – |
| Cc1cccc(N2CCN(C(=O)CN3C(=O)COc4ccc(S(=O)(=O)N5CCOCC5)cc43)CC2)c1C | inactive: -0.365% | – |
| Cc1ccc(NC(=O)Cn2c(=O)n(CCCCC(=O)NCCc3ccc(Cl)cc3)c(=O)c3ccccc32)cc1 | inactive: 22.9% | – |
| COc1ccc(CCNC(=O)c2oc(=O)c3ccccc3c2-c2ccccc2)cc1OC | inactive: -18.7% | – |
| COc1ccc(CNC(=O)CN2C(=O)COc3ccc(S(=O)(=O)N4CCC(C)CC4)cc32)cc1 | inactive: 4.07% | – |
| COc1cc(NC(=O)CCS(=O)(=O)c2nc(-c3ccc4c(c3)OCO4)cc(C(F)(F)F)n2)cc(OC)c1OC | inactive: 15.7% | – |
| COC(=O)c1sc(N2C(=O)c3oc4ccccc4c(=O)c3C2c2ccc(O)cc2)nc1C (configuration not stated) | inactive: -10.9% | – |
| CCCCNC(=O)C1CCC(CNS(=O)(=O)c2ccc(C)cc2)CC1 (configuration not stated) | inactive: 14.9% | – |
| Cc1nc(NC(=O)c2c(-c3ccccc3)c(-c3ccccc3)nn(C)c2=O)sc1C | inactive: 4.83% | – |
| COCCCNC(=O)CSc1nc2cc3c(cc2c(=O)n1CCCCCC(=O)NCc1ccc2c(c1)OCO2)OCO3 | inactive: -0.316% | – |
| COc1ccc(-c2cc(=O)c3cc(OCC(=O)OC(C)C)ccc3o2)cc1 | inactive: -0.795% | – |
| COc1ccccc1NC(=O)C1CCN(S(=O)(=O)c2ccc3[nH]c4c(c3c2)CCCCC4)CC1 | inactive: 2.17% | – |
| CCN1CCN(C(c2ccc(SC)cc2)c2c(O)cc(C)n(Cc3ccco3)c2=O)CC1 (configuration not stated) | inactive: 0.163% | – |
| Cc1cc(C)c(NC(=O)CCn2c(=O)c3cccn3c3ccccc32)c(C)c1 | inactive: -14.8% | – |
| O=C(COC(=O)C(Cc1c[nH]c2ccccc12)NC(=O)c1ccc(Cl)cc1)c1ccc(Cl)cc1 (configuration not stated) | inactive: 11.6% | – |
